Among all 410,000 compounds or so, about 6,400 (1.6%) were called active. Inconclusive results, whose numbers are uncertain, are shown with a selection of clear calls. Calls follow the shape of the dose curve; as a rule, active = well fitted inhibition curve with a large enough effect; inconclusive = small, poorly fitted or top-dose-only effect; inactive = no such curve, though single readings can be large or run the other way. Potencies of inconclusive entries are left out as doubtful fits.
biological target: Glucagon-like peptide 1 receptor (Homo sapiens) (UniProt P43220); experiment: qHTS of GLP-1 Receptor Inverse Agonists (Inhibition Mode); conditions: HEK293 GLP-1R CRE-luciferase, luminescence, 24 h, GLP-1R form is constitutively active; series mostly up to 38.3 µM; also: nearly all actives have a fitted effect of over 55% in size
Sequence of UniProt P43220 (P43220 whole entry, looked up): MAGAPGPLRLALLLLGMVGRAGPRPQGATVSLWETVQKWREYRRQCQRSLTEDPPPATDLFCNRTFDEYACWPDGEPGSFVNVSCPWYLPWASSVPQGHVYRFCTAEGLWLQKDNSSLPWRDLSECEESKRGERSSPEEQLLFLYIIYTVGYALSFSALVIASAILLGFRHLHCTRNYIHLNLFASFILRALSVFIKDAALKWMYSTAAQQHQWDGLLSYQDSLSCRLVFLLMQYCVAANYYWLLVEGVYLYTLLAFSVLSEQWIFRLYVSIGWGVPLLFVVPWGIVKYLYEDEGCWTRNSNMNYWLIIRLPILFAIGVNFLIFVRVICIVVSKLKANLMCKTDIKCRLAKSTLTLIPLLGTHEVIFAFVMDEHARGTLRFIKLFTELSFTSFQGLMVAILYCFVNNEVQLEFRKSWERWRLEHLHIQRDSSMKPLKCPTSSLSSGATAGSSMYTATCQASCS
Method in brief: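 Seeding at 200 cells/uL, 12 h culture, 24 hr compound treatment, then luciferase reagent and a luminescence read; cells are HEK293 stably expressing a constitutively active GLP-1R plus cAMP-responsive luciferase.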
Potency is read from the fitted curve at half-maximal effect; tags tell the direction and shape of the fitted curve.

Row | Compound | Potency
1 | Brc1ccc(-c2cn3ccccc3n2)s1 | inconclusive [inhibitor, partial curve]
2 | CCCCCn1c(C)c2c(OCC)cccc(=O)c2c1C | active: 10 µM
3 | CCOC(=O)c1ccc(NC(=S)P(=O)(c2ccccc2)c2ccccc2)cc1 | inconclusive [inhibitor, partial curve]
4 | OC(CNc1ccccc1)Cn1ccc2ccccc21 (stereo not given) | active: 11.2 µM
5 | O=C(O)c1ccc(NCCC2=CCCCC2)c([N+](=O)[O-])c1 | inconclusive [inhibitor, single point]
6 | COc1ccccc1C1=Nn2c(nnc2C2CCCCC2)SC1 | inconclusive [inhibitor, single point]
7 | c1ccc(CNCc2ccc(CNCc3ccccc3)cc2)cc1 | inconclusive [inhibitor, full curve, poor fit]
8 | COc1cc(OC)c(NC(=S)NCc2ccc(F)cc2)cc1Cl | inconclusive [inhibitor, partial curve, poor fit]
9 | CCOC(=O)c1c(C)[nH]c(C)c1S(=O)(=O)N1CCCC(C(=O)N2CCN(c3cc(C)ccc3C)CC2)C1 (stereo not given) | inconclusive [inhibitor, single point]
10 | Cc1ccc(C)c(NC(=O)CCC(=O)NNS(=O)(=O)c2ccc(Cl)cc2)c1 | inactive
11 | Cc1ccc(CNC(=O)C2CCN(S(=O)(=O)c3ccc4c(c3)oc(=O)n4C)CC2)cc1 | inactive
12 | CCN(CC)CCCNC(=O)C(C)n1nc(C)c2sc3ccccc3c2c1=O (stereo not given) | inconclusive [inhibitor, single point]
13 | Nc1nc2ccc(Cl)cc2cc1C(=O)NCCCN1CCOCC1 | inactive
14 | c1ccc2c(-c3cncc4ccccc34)cncc2c1 | active: 2 µM
15 | CCN(CCCNC(=O)CCCCn1c(=O)[nH]c2ccccc2c1=O)c1ccccc1 | inconclusive [inhibitor, partial curve, poor fit]
16 | CCc1ccc(-n2nc(C)c3c(C)cc(=O)n(CC(=O)Nc4ccc(OC)c(OC)c4)c32)cc1 | inactive
17 | Cc1cc2c(cc1C)N(C(=O)CCl)CC(=O)N2 | inconclusive [inhibitor, single point]
18 | CCCCn1cnc2c1c(=O)n(CC(=O)c1cc(C)n(C)c1C)c(=O)n2CC(C)C | inconclusive [inhibitor, partial curve, poor fit]
19 | O=C(NCc1ccccc1)C(c1c(F)cccc1Cl)N(C(=O)c1csnn1)C1CC1 (stereo not given) | inconclusive [inhibitor, partial curve, poor fit]
20 | CCCCC(=O)Nc1nc2c(s1)COc1ccccc1-2 | inconclusive [inhibitor, partial curve, poor fit]
21 | C1CC(=NN=C2CCSCC2)CCS1 | inactive
22 | CC(=O)Nc1ccc(CN2CCCC(C(=O)c3cccc(C(F)(F)F)c3)C2)cc1 (stereo not given) | inconclusive [inhibitor, partial curve, poor fit]
23 | CCC(=O)c1cc(F)c(N2CCN(C(=O)Cc3ccccc3)CC2)cc1C | inconclusive [inhibitor, partial curve, poor fit]

Row | Compound | Potency
24 | Cc1cccc(N2CCN(C(=O)CSc3nc4ccccc4nc3N3CC(C)OC(C)C3)CC2)c1C (stereo not given) | inconclusive [inhibitor, partial curve, poor fit]
25 | CC(=O)Nc1ccc(S(=O)(=O)N(Cc2ccccc2)c2ccccc2F)cc1 | inconclusive [inhibitor, single point]
26 | COc1cc(C(=O)N(C)C2CCCCC2)cc(OC)c1OC | inactive
27 | C=CCn1c(C2CC2)n[nH]c1=S | inactive
28 | O=C(NCC(c1cccs1)N1CCOCC1)c1ccc(OCc2ccccc2)cc1 (stereo not given) | inconclusive [inhibitor, single point]
29 | CC(NC(=O)c1cc(S(=O)(=O)N(C)C)ccc1Cl)c1ccc(-n2ccnc2)cc1 (stereo not given) | inactive
30 | CCc1nc(N)c(C#N)c(-c2ccc(F)cc2)c1C | inactive
31 | CCOc1ccc(S(=O)(=O)Nc2cccc(C(=O)NCC(C)(C)N3CCOCC3)c2)cc1 | inactive
32 | COc1ccc(OCC(=O)N(C)CC2COc3ccccc3O2)cc1 (stereo not given) | inconclusive [inhibitor, single point]
33 | O=C(CSc1nnnn1-c1ccc(O)cc1)Nc1cccc(S(=O)(=O)N2CCCC2)c1 | inconclusive [inhibitor, single point]
34 | COc1ccccc1NC(=O)Cc1csc(NC(=S)Nc2ccc(C)cc2)n1 | inactive
35 | COc1cccc(OC)c1C(=O)OCC(=O)NCC(C)C | inactive
36 | CCOC(=O)c1sc(N)c(C(=O)Nc2ccccc2OC)c1C | inconclusive [inhibitor, partial curve, poor fit]
37 | CC1=C(C)/C(=N\OS(=O)(=O)c2ccc(C)cc2)C=CC1=O | inconclusive [inhibitor, single point]
38 | CCOc1ccc(C(=O)CSCCC(=O)O)cc1 | inactive
39 | Cc1cccc(OCC(=O)NC(=S)Nc2ccc(S(=O)(=O)NC3CCCCC3)cc2)c1 | inconclusive [inhibitor, partial curve, poor fit]
40 | COc1cccc(C(O)c2nc(-c3ccc(Cl)cc3)cs2)c1 (stereo not given) | inconclusive [inhibitor, single point]
41 | CCCCn1c(N)c(N(C)C(=O)c2cccc(-n3cnnn3)c2)c(=O)[nH]c1=O | inactive
42 | CC(C)c1ccc(NC(=O)c2cc([N+](=O)[O-])ccc2N2CCOCC2)cc1 | inconclusive [inhibitor, single point]
43 | CN(C)c1ccc(C(CNC(=O)Cc2cccc3ccccc23)N(C)C)cc1 (stereo not given) | inconclusive [inhibitor, full curve, poor fit]
44 | CCOc1cccc(C(=O)Nc2cccc(C(=O)NC(C)(C)C)c2)c1 | inconclusive [inhibitor, single point]
45 | CCc1cccc(C)c1NC(=O)c1cnn(-c2ccc(F)cc2)c1-n1cccc1 | inconclusive [inhibitor, full curve, poor fit]

From PubChem BioAssay AID624417 (National Center for Advancing Translational Sciences (NCATS), 2012)
